53 compounds from PubChem BioAssay AID651568 (National Center for Advancing Translational Sciences (NCATS), 2012) can be followed below.

Molecules are shown by their SMILES. The whole screen tested about 1,200 compounds, of which about 55 (5%) were called active. About 15% were inconclusive and are not listed. Calls come from the whole dose curve; as a rule, active = well fitted inhibition curve with a large enough effect; inconclusive = small, poorly fitted or top-dose-only effect; inactive = no such curve, though single readings can be large or run the other way. This is one part of the list.
% is set by controls: 0 for no effect and ±100 for the full control effect; potency is the fitted concentration of half-maximal effect.

The test can be described thus: qHTS Assay to Find Inhibitors of Chronic Active B-Cell Receptor Signaling: Hit Validation in Renilla Reporter Assay. Note: nearly all actives have a fitted effect of over 70% in size. As to conditions: TMD8 IkB-Renilla luciferase reporter, NF-kB signaling; series mostly up to 57.5 µM; activity change, negative = inhibition: at the top concentration. An excerpt: Diffuse large B-cell lymphoma (DLBCL) is the most common category of non-Hodgkin lymphoma, with ~20,000 new cases per year in the United States. DLBCL should be regarded as a collection of different neoplasms. Microarray gene expression analysis has defined two principal types of DLBCL, named for their similarity to normal B cell stages or activation states: a germinal center B-cell (GCB) type, and an activated B-cell (ABC) type. In ABC-DLBCL, a constitutive high-level activity of the NF-kappaB family of transcription factors has been observed (1) and NF-kappaB target genes are more highly expressed in ABC primary tumors than in GCB tumors. Functional studies have shown a constitutive high-level activity of the IkappaB (inhibitor of kappa-B) kinase (IKK) complex. […] Further analysis of DLBCL primary tumors for NF-kappaB target gene expression imply that although CARD11 is required for constitutive IKK activity in all ABC-DLBCL lines, mutations in CARD11 may be the root cause of IKK activation only in lines or tumors with such mutations. In other words, CARD11 mutations may explain NF-kappaB activation in only 10% of ABC-DLBCL cases. […] This process has been termed 'chronic active BCR signaling' (CABS). The goal of this screen is to find small-molecule inhibitors of the CABS pathway found in ABC-DLBCL lines using a cell-based assay that measures IkappaBalpa stability, which has already been extensively validated in the OCI-Ly3 line (PubChem AID:445; REF: 4). […] Hits from the primary screen were tested in this orthogonal secondary assay. NIH Molecular Libraries Probe Production Network [MLPCN] NIH Chemical Genomics Center [NCGC] MLPCN Grant: R03 DA031086 PI Name: Dr. R. Eric Davis
The IkB-Photinus/Renilla reporter assay differs from the primary assay in that the reporters are constitutively expressed, and based on luciferases that are different from the click beetle luciferases and each other. These differences should help to eliminate artifactual sources of activity specific to the primary assay. This assay uses the Dual-Glo substrate from Promega; extensively validated in a 96-well format, it could be converted to a smaller-well format. All lines needed for the IkB-Photinus/Renilla assay have already been prepared and extensively validated
For `CC(=O)Nc1ccc(NS(=O)(=O)c2cc(-c3n[nH]c(=O)c4ccccc34)ccc2C)cc1`, the “activity change, negative = inhibition” value was inactive: 19.6%.
As for `Cc1c(CCC(=O)N[C@@H](CCCNC(N)=O)C(=O)O)c(=O)oc2cc3oc4c(c3cc12)CCCC4`, the “activity change, negative = inhibition” value was inactive: -12.2%.
On the same count and under the same terms, in the case of `CC1=NN(C(N)=S)C(=O)C1N=Nc1ccccc1` (stereo not drawn) it was inactive: -1.3%; in that of `CCOc1cc(NC(=O)CCl)c(OCC)cc1NC(=O)CCl`, inactive: -23.9%.
Same read-out and setting: in the case of `Nc1nc(N)c(N=O)c(OCC2CCCCC2)n1` it was inactive: -27.9%.
Same read-out and setting: in the case of `CCOc1c(Br)cc(CNc2ccc3c(c2)OCCO3)cc1OC` it was inactive: -16.9%; in that of `CC(C)(C)NNC(=S)Nc1cccc(C(F)(F)F)c1`, inactive: 25.8%; in that of `Cc1ccc(NC(=O)/C=C/c2ccco2)nc1`, inactive: -0.453%.
On to `CC(/C=N/NC(=O)c1cc(-c2ccc(Cl)cc2)nc2ccccc12)=C\c1ccco1`, for which the “activity change, negative = inhibition” value was inactive: -13%.
The same measure, in the same setting: in the case of `Cc1ccc(CNC(=O)Cc2ccc(-n3c(=O)[nH]c4ccsc4c3=O)cc2)cc1` it was inactive: 5.72%; in that of `Cc1nn(C)cc1CNC(=O)COc1ccc(Cl)cc1Cl`, inactive: -17.4%.
In the case of `Cc1nn(Cc2ccccc2)c2c1C(c1ccccc1)C(C#N)=C(N)O2` (stereo not drawn), the “activity change, negative = inhibition” value was inactive: -20.3%.
In the case of `C=CCn1c(SC2CCOC2=O)nc2sc(C)c(C)c2c1=O` (stereo not drawn), the “activity change, negative = inhibition” value is inactive: 20.1%.
On to `CCCCOc1ccc2c(C)cc(=O)oc2c1OCCCC`, for which the “activity change, negative = inhibition” value was inactive: 6.6%.
Still for that read-out and setting: in the case of `COc1ccc(C2CC(c3ccncc3)=NN2c2ccc(S(N)(=O)=O)cc2)cc1` (stereo not drawn) it was inactive: 44.1%; in that of `CCC(=NCCc1c(C)[nH]c2ccc(C)cc12)C1=C(O)CC(c2ccccc2)CC1=O` (stereo not drawn), inactive: -14.9%.
Turning to `O=C(N/N=C/C(Br)=C\c1ccccc1)c1ccc2nc[nH]c2c1`, the “activity change, negative = inhibition” value was inactive: 26.4%.
The same measure, in the same setting: in the case of `CCCn1nnc(NC(=S)NC(=O)c2ccc(-c3ccc(Br)cc3)o2)n1` it was inactive: -0.845%; in that of `COc1cc(C2C(C#N)=C(N)Oc3cc4c(cc32)OCO4)cc(OC)c1OC` (stereo not drawn), inactive: -15.9%.
Still for that read-out and setting: in the case of `COc1ccccc1NS(=O)(=O)c1cccc(C(=O)N/N=C/c2cn(-c3ccccc3)nc2-c2ccccc2)c1` it was inactive: 12.3%.
Same read-out and setting: in the case of `CC(=O)c1c(C)[nH]c(C(=O)OCC(=O)c2c[nH]c3ccccc23)c1C` it was inactive: -20.1%; in that of `NC(=S)N/N=C\c1ccc(-c2cccc(Cl)c2Cl)o1`, inactive: -21.4%.
With `O=C(Cc1ccc(-n2c(=O)c3ccccc3n(Cc3ccccc3F)c2=O)cc1)NCC1CCCO1` (stereo not drawn), the “activity change, negative = inhibition” value was inactive: -0.408%.
With `Nc1ncnc2c1ncn2C1OC(COP(=O)(O)O)C(O)C1O` (stereo not drawn), the “activity change, negative = inhibition” value is inactive: 8.07%.
Consider `CCCCOc1ccccc1C1CC(=O)NC2=C1C(=O)CCC2` (stereo not drawn), for which the “activity change, negative = inhibition” value was inactive: -0.121%.
Same read-out and setting: in the case of `CC1=Nc2cc(C(=O)NC3CCCCC3)ccc2Sc2ccc(Cl)cc21` it was inactive: -18.2%; in that of `CCc1ccc(NC(=O)CSc2nc(=O)n(CCCN3CCOCC3)c3c2CCCC3)cc1`, inactive: 0.311%; in that of `C/C(=N\NC(=O)c1c([N+](=O)[O-])c(C)nn1C)c1ccc(NC(=O)C2CCCC2)cc1`, inactive: 5.23%.
As to `Cc1noc(C)c1CSc1nc2[nH]ncc2c(=O)n1-c1ccccc1`, the “activity change, negative = inhibition” value is inactive: -19.9%.
Still for that read-out and setting: in the case of `CCC1=Nc2cc(C(=O)NCc3ccco3)ccc2Sc2ccc(C)cc21` it was inactive: -16.4%.
`S=C(NCc1ccc2[nH]c3c(c2c1)CCCC3)Nc1ccccc1`: the “activity change, negative = inhibition” value was inactive: -25.8%.
Same read-out and setting: in the case of `COc1cc2sc(-c3ccccc3OC)c(-c3ccc(OCCN4CCOCC4)cc3)c2cc1OC` it was inactive: -6.95%.
Still for that read-out and setting: in the case of `COc1cc(OC)c2c(-c3cccc(-c4ccc(NC(C)=O)cc4)c3)cc(=O)oc2c1` it was inactive: -17.9%.
For `CC1CCN(C(=O)CCCOc2cc(=O)n(C)c3ccccc23)CC1`, the “activity change, negative = inhibition” value was inactive: 8.3%.
On the same count and under the same terms, in the case of `Cc1ccc(-c2ccc(/C=N/NC(N)=S)o2)cc1` it was inactive: -2.52%; in that of `O=[N+]([O-])c1ccccc1S(=O)(=O)Nc1cccc2cccnc12`, inactive: -12.9%.
Take `Nc1nc(Cl)nc2c1ncn2[C@@H]1O[C@H](CO)[C@@H](O)[C@H]1O`: the “activity change, negative = inhibition” value is inactive: -0.157%.
`Cc1cc(C)cc(C(=O)N2CC(=O)Nc3ccccc32)c1`: the “activity change, negative = inhibition” value was inactive: -19.3%.
The same measure, in the same setting: in the case of `COc1ccc(NC(=S)N/N=C/c2ccc(F)cc2)cc1OC` it was inactive: 2.21%.
Take `COc1ccc(-c2noc(CSc3nc(N)c(-c4ccccc4)c(=O)[nH]3)n2)cc1`: the “activity change, negative = inhibition” value is inactive: -24.5%.
Same read-out and setting: in the case of `C/C(=N\NC(=S)NC1CCCCC1)c1ccc(C)o1` it was inactive: 32.3%; in that of `Nc1ncnc2c1ncn2[C@@H]1O[C@H](CNCc2ccc(-c3cc(C(F)(F)F)ccc3Cl)o2)[C@@H](O)[C@H]1O`, inactive: 2.18%.
Regarding `S=c1[nH]nc(-c2ccco2)n1/N=C/C(Cl)=C/c1ccccc1`, the Potency is active: 26.9 µM.
Turning to `CCCC(C)NC(=O)c1ccc(C2SCC(=O)N2Cc2ccco2)cc1` (stereo not drawn), the “activity change, negative = inhibition” value was inactive: 4.17%.
On the same count and under the same terms, in the case of `COc1ccc(-c2c(C)c3ccc(O)cc3oc2=O)cc1` it was inactive: 7.08%; in that of `Cn1c(=O)n(C)c2cc(NS(=O)(=O)c3ccc(Br)s3)ccc21`, inactive: 36.7%; in that of `O=C(CNCc1ccccc1)Nc1ccc(Oc2ccccc2)cc1`, inactive: 12.7%.
On the same count and under the same terms, in the case of `CCN(CC)S(=O)(=O)c1ccc(N2CCOCC2)c(NC(=O)c2c3c(nc4ccccc24)CCC3)c1` it was inactive: -0.0951%.
The same measure, in the same setting: in the case of `CCOc1ccccc1C(=O)N1CCN(c2cccc(Cl)c2)CC1` it was inactive: -20.3%; in that of `COc1ccc(OC)c(S(=O)(=O)Nc2ccc(-c3ccc4nnc(C)n4n3)cc2)c1`, inactive: 53.8%; in that of `COCCn1c(-c2cccc([N+](=O)[O-])c2)nc2c1c(=O)[nH]c(=O)n2Cc1ccccc1`, inactive: -17.5%.
In the case of `O=C(N/N=C/c1ccccc1)c1[nH]c2ccc(Br)cc2c1-c1ccccc1`, the “activity change, negative = inhibition” value is inactive: 18.4%.
Same read-out and setting: in the case of `COCCOC(=O)c1[nH]c2c(c1C)C(=O)CC(c1ccccc1)C2` (stereo not drawn) it was inactive: -12%.
